The list shows a part of the results.
Each sequence was assayed against T1, OsWOX13 (Oryza sativa, UniProt Q5QMM3 1-267) (assay: protein-binding microarray (RPBM); PBS, 2% BSA, 51.3 ng/ul salmon testes DNA, 50 uM zinc acetate, 200 nM TF, 25 C, 1 h; high values mean tight binding). Conditions: protein: recombinant; tags: N-terminal polyhistidine and DsRed monomer fusion (pET32a); label: CyDye5-dUTP incorporated in the synthesized complementary strand; 3' TTTTT single-stranded linker to array surface; dsDNA, one strand shown.
T1 sequence: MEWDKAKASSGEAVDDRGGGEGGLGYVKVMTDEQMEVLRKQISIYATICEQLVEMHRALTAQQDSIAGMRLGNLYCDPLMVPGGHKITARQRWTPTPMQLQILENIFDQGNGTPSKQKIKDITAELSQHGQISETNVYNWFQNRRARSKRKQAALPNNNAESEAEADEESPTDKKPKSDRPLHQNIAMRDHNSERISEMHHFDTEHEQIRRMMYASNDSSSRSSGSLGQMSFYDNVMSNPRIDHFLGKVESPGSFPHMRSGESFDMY
Method in brief: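 The binding signal is fluorescence intensity per array feature (arbitrary units). Readings came from an Axon 4000B scanner after a washed, 2% BSA-blocked, double-stranded custom Agilent array had been incubated for 1 h at 25 °C with 200 nM protein and 50 µM zinc acetate. The protein was a Ni–NTA-purified transcription factor fused N-terminally to polyhistidine and DsRed, expressed in E. coli BL21-CodonPlus.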
In the case of “GATGATTAGTGCCTCAGTTATTTGAATGTCCATTATTCTGCGGAGTCACCTAGTGCAG”, the binding signal is reported as 43900 fluorescence intensity (a.u.). With “TTATAATGGTTTTAATAATTGAGAGAATCAAGATATCCGGCGGAGTCACCTAGTGCAG” the binding signal was 14900 fluorescence intensity (a.u.). In the case of “TCATTTCTCCAATCATAGGAGCTGGCGCATTGATCGATCACGGAGTCACCTAGTGCAG”, the binding signal is reported as 6160 fluorescence intensity (a.u.). “TTCAGACGTGATTTTGAATCTTAATAGCATGCATATGAGCCGGAGTCACCTAGTGCAG” was tested, and the binding signal was 9270 fluorescence intensity (a.u.). In the case of “GCAGCTGACAGGCTTTCCCTACACCCATATCAAGAGAGCCCGGAGTCACCTAGTGCAG”, the binding signal is reported as 4550 fluorescence intensity (a.u.). In the case of “AAATACTTAATTAATCACGTGTTAATGGATCGCTCCGTTTCGGAGTCACCTAGTGCAG”, the binding signal is reported as 21600 fluorescence intensity (a.u.). “AGAAGATTAATTATATACATGAACATTAATTCTGAACTACCGGAGTCACCTAGTGCAG” was tested, and the binding signal was 36300 fluorescence intensity (a.u.). With “CGTTTAAATTACATCATAAGATGGTTTTGGACGGTGGTTTCGGAGTCACCTAGTGCAG” the binding signal was 6260 fluorescence intensity (a.u.). In the case of “ATAAATTTAGTTAAGGACGAGTACTGTGAGTTAATCGTGTCGGAGTCACCTAGTGCAG”, the binding signal is reported as 8040 fluorescence intensity (a.u.). For “TGCTGTTCTTAATTGCTGCATGCCATGTCTCACTTGGAAACGGAGTCACCTAGTGCAG”, the binding signal was 3590 fluorescence intensity (a.u.). For “ATAAAATTAGAACATTATCATCACGGTCATGTTTTCCATCCGGAGTCACCTAGTGCAG”, the binding signal was 11700 fluorescence intensity (a.u.). For “ATAGGCTGTCTTCAATTAGAGCATTTAAACATTTAATGCTCGGAGTCACCTAGTGCAG”, the binding signal was 8190 fluorescence intensity (a.u.). With “GTATGATTAATTGAGTTTTAATTATTATAAAATTTTAAAACGGAGTCACCTAGTGCAG” the binding signal was 22900 fluorescence intensity (a.u.). For “GACGATTACATCAAGTTGATAGAACCATACTAAGAAAATTCGGAGTCACCTAGTGCAG”, the binding signal was 4070 fluorescence intensity (a.u.). For “TTAGATAAATTTTACAATATATAACGGCTTTATTGAATGCCGGAGTCACCTAGTGCAG”, the binding signal was 4840 fluorescence intensity (a.u.). In the case of “GTGAATAAATTATGAATGACAAGATTAAGAGTAAATTATGCGGAGTCACCTAGTGCAG”, the binding signal is reported as 36400 fluorescence intensity (a.u.). With “ACCCCGAGCTGATTATCTCTGAACGTACGATCAAGCCGTCCGGAGTCACCTAGTGCAG” the binding signal was 6180 fluorescence intensity (a.u.). For “GAAAATTTGACTGTTCAAAATTGTGTGAAAGTTATATTGTCGGAGTCACCTAGTGCAG”, the binding signal was 11100 fluorescence intensity (a.u.). For “AATTCTCCATTTAACTTTTCCGTTTTCCAATTTCACATCACGGAGTCACCTAGTGCAG”, the binding signal was 3390 fluorescence intensity (a.u.). “ATAATAAATATAGTTAATTAAAGGAACAGAGTGAAGTCAGCGGAGTCACCTAGTGCAG” was tested, and the binding signal was 11600 fluorescence intensity (a.u.). In the case of “TAGAGATTTAATTACAATGAATACAACGGTGTGATCGGATCGGAGTCACCTAGTGCAG”, the binding signal is reported as 11700 fluorescence intensity (a.u.). In the case of “TGGAGATTAGATCTGTACAGCCGGGTATGGTTGTTCAGGACGGAGTCACCTAGTGCAG”, the binding signal is reported as 3810 fluorescence intensity (a.u.). “TACCAACAGCGCCCTACTCGTCGTCGCTCCCGGTCGCTGCCGGAGTCACCTAGTGCAG” was tested, and the binding signal was 47600 fluorescence intensity (a.u.). For “ATGAAATTTAAAACTTAAATTTCGGTTATGGCTGATAAGCCGGAGTCACCTAGTGCAG”, the binding signal was 17500 fluorescence intensity (a.u.). For “ACTTGATGGCGATTAAGAGCTCCTCCTCTGTCATGCTCATCGGAGTCACCTAGTGCAG”, the binding signal was 7500 fluorescence intensity (a.u.). For “GTCGCCGCCAATCATGTCGTCATCGTGTCGCCATCCCATCCGGAGTCACCTAGTGCAG”, the binding signal was 11500 fluorescence intensity (a.u.). With “ATTTATTTGAAATTTCACATATAAATCAATGTACTATGTGCGGAGTCACCTAGTGCAG” the binding signal was 4760 fluorescence intensity (a.u.). For “TAGAATAAATATGAAATAAATTATGAAATTGGAAGAACAACGGAGTCACCTAGTGCAG”, the binding signal was 3700 fluorescence intensity (a.u.). In the case of “ACCACTTGATTAGCGCCACGAGCAGCACGCGCGGGCAGACCGGAGTCACCTAGTGCAG”, the binding signal is reported as 28800 fluorescence intensity (a.u.). In the case of “CATGTTTTCTTACAAATTAAATTAAGGATTTCTACTTTGACGGAGTCACCTAGTGCAG”, the binding signal is reported as 3160 fluorescence intensity (a.u.). For “AATGGAGATTGGATCTGATTGGTTGTTGTTGCTTGAGGATCGGAGTCACCTAGTGCAG”, the binding signal was 62600 fluorescence intensity (a.u.). In the case of “CCGATTGATATCTAATTTTATCCCTCACAAGTCACAGGGACGGAGTCACCTAGTGCAG”, the binding signal is reported as 38100 fluorescence intensity (a.u.). With “GTTAATTAAGCTGGGAGATTAACGCTGAACAAATAATTAACGGAGTCACCTAGTGCAG” the binding signal was 10400 fluorescence intensity (a.u.). In the case of “GATTTTGATATTATAATTAATATCCATATAATAATAGCCTCGGAGTCACCTAGTGCAG”, the binding signal is reported as 6490 fluorescence intensity (a.u.). “ATGAGTTAAATCAAATTTACAAAGTTTAAATATGTCCATGCGGAGTCACCTAGTGCAG” was tested, and the binding signal was 3400 fluorescence intensity (a.u.). In the case of “AGGTAAAATCACAATTAGATATGAAAATAGGGATTGCTCCCGGAGTCACCTAGTGCAG”, the binding signal is reported as 7560 fluorescence intensity (a.u.). For “GATAATTAGAGGCCGTTGCTGCTGTGCTTACCACTGTGTGCGGAGTCACCTAGTGCAG”, the binding signal was 35400 fluorescence intensity (a.u.). For “CATGCTTGATTAAAATTCATCAATGCACAAAGCATGTCAGCGGAGTCACCTAGTGCAG”, the binding signal was 21100 fluorescence intensity (a.u.). In the case of “ATGTTTCCTGCTTTGTCAATTAATCTCAAATGTTCAAAATCGGAGTCACCTAGTGCAG”, the binding signal is reported as 3950 fluorescence intensity (a.u.). With “TATAAATAGATATTTGAGATTTATCCATATTACGTTGAGTCGGAGTCACCTAGTGCAG” the binding signal was 7020 fluorescence intensity (a.u.). “GCAAAATTGGCAAACAGCTGTCAACTGGGAGGCAAATATCCGGAGTCACCTAGTGCAG” was tested, and the binding signal was 18200 fluorescence intensity (a.u.). In the case of “CCTGACAGCTACTATAGCTTGCTCCAGCGCTGTCAAACTTCGGAGTCACCTAGTGCAG”, the binding signal is reported as 4050 fluorescence intensity (a.u.).

— paper PMC7819943, “Rice protein-binding microarrays: a tool to detect cis-acting elements near promoter regions in rice”
